Experimental data from patent publication US9234216B2, “Variant CBH I polypeptides” (BP Corporation North America Inc., priority 2011, dated 2016).

Assay: Saccharification of pretreated bagasse by CBHI variants in a cocktail with CBHII and EG
Format: biochemical
Settings: Table 2; for % improvement over WT @ 48 hr: 5% w/v pretreated bagasse, 35° C., pH5.2, CBHI 4 mg/g cellulose, (% conversion of variant − % conversion of wt)/% conversion of wt; for Dose Reduction: method not described
Procedure: CBHI variants shown in Tables 1 and 5 were assayed under the following conditions: • 5% w/v pretreated bagasse (62.07% cellulose) • 35° C., 300 rpm shaking with 2 BBs per r×n • pH5.2 • 1 mM Sodium Azide • 5 ml total volume • Enzyme Dosing Overview:
• Time point: T=0, 48 hours • Time point (for Point Mutant Recombinants): T=0, 72 hours • % improvement over wt=(% conversion of variant−% conversion of wt)/ • % conversion of wt Results of these assays are shown in Tables 2 and 6. • CBHI variants shown in Table 3 were assayed under the following conditions: […]

| Molecule | % improvement over WT @ 48 hr | Dose Reduction |
| --- | --- | --- |
| SEQ ID NO: 19, 20: BD29555 CBH I variant: H157G (protein) MSALNSFNMYKSALILGSLLATAGAQQIGTYTAETHPSLSWSTCKSGGSCTTNSGAITLDANWRWVHGVNTSTNCYTGNTWNTAICDTDASCAQDCALDGADYSGTYGITTSGNSLRLNFVTGSNVGSRTYLMADNTHYQIFDLLNQEFTFTVDVSGLPCGLNGALYFVTMDADGGVSKYPNNKAGAQYGVGYCDSQCPRDLKFIAGQANVEGWTPSSNNANTGLGNHGACCAELDIWEANSISEALTPHPCDTPGLSVCTTDACGGTYSSDRYAGTCDPDGCDFNPYRLGVTDFYGSGKTVDTTKPITVVTQFVTDDGTSTGTLSEIRRYYVQNGVVIPQPSSKISGVSGNVINSDFCDAEISTFGETASFSKHGGLAKMGAGMEAGMVLVMSLWDDYSVNMLWLDSTYPTNATGTPGAARGSCPTTSGDPKTVESQSGSSYVTFSDIRVGPFNSTFSGGSSTGGSSTTTASGTTTTKASSTSTSSTSTGTGVAAHWGQCGGQGWTGPTTCASGTTCTVVNPYYSQCL | 8.8% | 0.75X |
| SEQ ID NO: 21, 22: BD29555 CBH I variant: P159G (protein) MSALNSFNMYKSALILGSLLATAGAQQIGTYTAETHPSLSWSTCKSGGSCTTNSGAITLDANWRWVHGVNTSTNCYTGNTWNTAICDTDASCAQDCALDGADYSGTYGITTSGNSLRLNFVTGSNVGSRTYLMADNTHYQIFDLLNQEFTFTVDVSHLGCGLNGALYFVTMDADGGVSKYPNNKAGAQYGVGYCDSQCPRDLKFIAGQANVEGWTPSSNNANTGLGNHGACCAELDIWEANSISEALTPHPCDTPGLSVCTTDACGGTYSSDRYAGTCDPDGCDFNPYRLGVTDFYGSGKTVDTTKPITVVTQFVTDDGTSTGTLSEIRRYYVQNGVVIPQPSSKISGVSGNVINSDFCDAEISTFGETASFSKHGGLAKMGAGMEAGMVLVMSLWDDYSVNMLWLDSTYPTNATGTPGAARGSCPTTSGDPKTVESQSGSSYVTFSDIRVGPFNSTFSGGSSTGGSSTTTASGTTTTKASSTSTSSTSTGTGVAAHWGQCGGQGWTGPTTCASGTTCTVVNPYYSQCL | 11.0% | 0.75X |
| SEQ ID NO: 23, 24: BD29555 CBH I variant: N183A (protein) MSALNSFNMYKSALILGSLLATAGAQQIGTYTAETHPSLSWSTCKSGGSCTTNSGAITLDANWRWVHGVNTSTNCYTGNTWNTAICDTDASCAQDCALDGADYSGTYGITTSGNSLRLNFVTGSNVGSRTYLMADNTHYQIFDLLNQEFTFTVDVSHLPCGLNGALYFVTMDADGGVSKYPNAKAGAQYGVGYCDSQCPRDLKFIAGQANVEGWTPSSNNANTGLGNHGACCAELDIWEANSISEALTPHPCDTPGLSVCTTDACGGTYSSDRYAGTCDPDGCDFNPYRLGVTDFYGSGKTVDTTKPITVVTQFVTDDGTSTGTLSEIRRYYVQNGVVIPQPSSKISGVSGNVINSDFCDAEISTFGETASFSKHGGLAKMGAGMEAGMVLVMSLWDDYSVNMLWLDSTYPTNATGTPGAARGSCPTTSGDPKTVESQSGSSYVTFSDIRVGPFNSTFSGGSSTGGSSTTTASGTTTTKASSTSTSSTSTGTGVAAHWGQCGGQGWTGPTTCASGTTCTVVNPYYSQCL | 0.9% | 0.75X |
| SEQ ID NO25, 26: BD29555 CBH I variant: S156G (protein) MSALNSFNMYKSALILGSLLATAGAQQIGTYTAETHPSLSWSTCKSGGSCTTNSGAITLDANWRWVHGVNTSTNCYTGNTWNTAICDTDASCAQDCALDGADYSGTYGITTSGNSLRLNFVTGSNVGSRTYLMADNTHYQIFDLLNQEFTFTVDVGHLPCGLNGALYFVTMDADGGVSKYPNNKAGAQYGVGYCDSQCPRDLKFIAGQANVEGWTPSSNNANTGLGNHGACCAELDIWEANSISEALTPHPCDTPGLSVCTTDACGGTYSSDRYAGTCDPDGCDFNPYRLGVTDFYGSGKTVDTTKPITVVTQFVTDDGTSTGTLSEIRRYYVQNGVVIPQPSSKISGVSGNVINSDFCDAEISTFGETASFSKHGGLAKMGAGMEAGMVLVMSLWDDYSVNMLWLDSTYPTNATGTPGAARGSCPTTSGDPKTVESQSGSSYVTFSDIRVGPFNSTFSGGSSTGGSSTTTASGTTTTKASSTSTSSTSTGTGVAAHWGQCGGQGWTGPTTCASGTTCTVVNPYYSQCL | 5.8% | 0.75X |
| SEQ ID NO: 27, 28: BD29555 CBH I variant: S218P, T316S (protein) MSALNSFNMYKSALILGSLLATAGAQQIGTYTAETHPSLSWSTCKSGGSCTTNSGAITLDANWRWVHGVNTSTNCYTGNTWNTAICDTDASCAQDCALDGADYSGTYGITTSGNSLRLNFVTGSNVGSRTYLMADNTHYQIFDLLNQEFTFTVDVSHLPCGLNGALYFVTMDADGGVSKYPNNKAGAQYGVGYCDSQCPRDLKFIAGQANVEGWTPSPNNANTGLGNHGACCAELDIWEANSISEALTPHPCDTPGLSVCTTDACGGTYSSDRYAGTCDPDGCDFNPYRLGVTDFYGSGKTVDTTKPITVVTQFVSDDGTSTGTLSEIRRYYVQNGVVIPQPSSKISGVSGNVINSDFCDAEISTFGETASFSKHGGLAKMGAGMEAGMVLVMSLWDDYSVNMLWLDSTYPTNATGTPGAARGSCPTTSGDPKTVESQSGSSYVTFSDIRVGPFNSTFSGGSSTGGSSTTTASGTTTTKASSTSTSSTSTGTGVAAHWGQCGGQGWTGPTTCASGTTCTVVNPYYSQCL | 2.9% | 0.75X |
| SEQ ID NO: 29, 30: BD29555 CBH I variant: D318Q, T322S, I363V (protein) MSALNSFNMYKSALILGSLLATAGAQQIGTYTAETHPSLSWSTCKSGGSCTTNSGAITLDANWRWVHGVNTSTNCYTGNTWNTAICDTDASCAQDCALDGADYSGTYGITTSGNSLRLNFVTGSNVGSRTYLMADNTHYQIFDLLNQEFTFTVDVSHLPCGLNGALYFVTMDADGGVSKYPNNKAGAQYGVGYCDSQCPRDLKFIAGQANVEGWTPSSNNANTGLGNHGACCAELDIWEANSISEALTPHPCDTPGLSVCTTDACGGTYSSDRYAGTCDPDGCDFNPYRLGVTDFYGSGKTVDTTKPITVVTQFVTDQGTSSGTLSEIRRYYVQNGVVIPQPSSKISGVSGNVINSDFCDAEVSTFGETASFSKHGGLAKMGAGMEAGMVLVMSLWDDYSVNMLWLDSTYPTNATGTPGAARGSCPTTSGDPKTVESQSGSSYVTFSDIRVGPFNSTFSGGSSTGGSSTTTASGTTTTKASSTSTSSTSTGTGVAAHWGQCGGQGWTGPTTCASGTTCTVVNPYYSQCL | 13.9% | 0.75X |
| SEQ ID NO: 31, 32: BD29555 CBH I variant: T324R (protein) MSALNSFNMYKSALILGSLLATAGAQQIGTYTAETHPSLSWSTCKSGGSCTTNSGAITLDANWRWVHGVNTSTNCYTGNTWNTAICDTDASCAQDCALDGADYSGTYGITTSGNSLRLNFVTGSNVGSRTYLMADNTHYQIFDLLNQEFTFTVDVSHLPCGLNGALYFVTMDADGGVSKYPNNKAGAQYGVGYCDSQCPRDLKFIAGQANVEGWTPSSNNANTGLGNHGACCAELDIWEANSISEALTPHPCDTPGLSVCTTDACGGTYSSDRYAGTCDPDGCDFNPYRLGVTDFYGSGKTVDTTKPITVVTQFVTDDGTSTGRLSEIRRYYVQNGVVIPQPSSKISGVSGNVINSDFCDAEISTFGETASFSKHGGLAKMGAGMEAGMVLVMSLWDDYSVNMLWLDSTYPTNATGTPGAARGSCPTTSGDPKTVESQSGSSYVTFSDIRVGPFNSTFSGGSSTGGSSTTTASGTTTTKASSTSTSSTSTGTGVAAHWGQCGGQGWTGPTTCASGTTCTVVNPYYSQCL | 11.1% | 0.75X |
| SEQ ID NO: 33, 34: BD29555 CBH I variant: S326L (protein) MSALNSFNMYKSALILGSLLATAGAQQIGTYTAETHPSLSWSTCKSGGSCTTNSGAITLDANWRWVHGVNTSTNCYTGNTWNTAICDTDASCAQDCALDGADYSGTYGITTSGNSLRLNFVTGSNVGSRTYLMADNTHYQIFDLLNQEFTFTVDVSHLPCGLNGALYFVTMDADGGVSKYPNNKAGAQYGVGYCDSQCPRDLKFIAGQANVEGWTPSSNNANTGLGNHGACCAELDIWEANSISEALTPHPCDTPGLSVCTTDACGGTYSSDRYAGTCDPDGCDFNPYRLGVTDFYGSGKTVDTTKPITVVTQFVTDDGTSTGTLLEIRRYYVQNGVVIPQPSSKISGVSGNVINSDFCDAEISTFGETASFSKHGGLAKMGAGMEAGMVLVMSLWDDYSVNMLWLDSTYPTNATGTPGAARGSCPTTSGDPKTVESQSGSSYVTFSDIRVGPFNSTFSGGSSTGGSSTTTASGTTTTKASSTSTSSTSTGTGVAAHWGQCGGQGWTGPTTCASGTTCTVVNPYYSQCL | 13.4% | 0.75X |
| SEQ ID NO: 35, 36: BD29555 CBH I variant: Q334S (protein) MSALNSFNMYKSALILGSLLATAGAQQIGTYTAETHPSLSWSTCKSGGSCTTNSGAITLDANWRWVHGVNTSTNCYTGNTWNTAICDTDASCAQDCALDGADYSGTYGITTSGNSLRLNFVTGSNVGSRTYLMADNTHYQIFDLLNQEFTFTVDVSHLPCGLNGALYFVTMDADGGVSKYPNNKAGAQYGVGYCDSQCPRDLKFIAGQANVEGWTPSSNNANTGLGNHGACCAELDIWEANSISEALTPHPCDTPGLSVCTTDACGGTYSSDRYAGTCDPDGCDFNPYRLGVTDFYGSGKTVDTTKPITVVTQFVTDDGTSTGTLSEIRRYYVSNGVVIPQPSSKISGVSGNVINSDFCDAEISTFGETASFSKHGGLAKMGAGMEAGMVLVMSLWDDYSVNMLWLDSTYPTNATGTPGAARGSCPTTSGDPKTVESQSGSSYVTFSDIRVGPFNSTFSGGSSTGGSSTTTASGTTTTKASSTSTSSTSTGTGVAAHWGQCGGQGWTGPTTCASGTTCTVVNPYYSQCL | 7.5% | 0.75X |
